# Assay results: ChEMBL document CHEMBL4888484, “Replenishing the malaria drug discovery pipeline: Screening and hit evaluation of the MMV Hit Generation Library 1 (HGL1) against asexual blood stage Plasmodium falciparum ,using a nano luciferase reporter read-out” (2022)
# The whole screen tested about 150,000 compounds, of which about 540 (0.36%) showed an effect of 50% or more. Some of the results follow.
# Tested on: Plasmodium falciparum
# Assay: Primary screen in NF54 nanoGlo assay, in single point, at 2uM, 72h; a lower Z score goes with more inhibition
# Type: functional, Erythrocyte
# Conditions: timepoint 72 hour
Compound,% Inhibition,Z score
C=CCN(Cc1cccc2c1OCCO2)[C@H]1CCS(=O)(=O)C1,-8%,0.66
Cc1[nH]c(C(=O)NCc2cccnc2)c(C)c1S(=O)(=O)N1CCCCCC1,2%,-0.25
Cn1cc(C(O)CNC(=O)NC2CC2c2cccc(Cl)c2)cn1 (configuration not stated),-12%,1.27
O=C(COc1ccc(-c2ccccc2)cc1)Nc1ccc2c(c1)OCCCO2,0%,-0.01
Cc1ncccc1C(=O)N1C[C@H](CN(C)C)C2(CCCCC2)C1,-3%,0.56
COc1ccccc1NC(=O)[C@@H]1CCn2c(C(=O)c3ccccc3)ccc21,1%,-0.2
CCOC(=O)NCC(=O)NCCc1cccs1,-18%,1.85
O=C(c1cccs1)N1CC[C@H](c2cccs2)C1,-12%,2.48
CC(C)NS(=O)(=O)N(C)Cc1noc(C2CC2)n1,1%,-0.15
Cc1ccncc1C(=O)N1CCCN(Cc2ccncc2)[C@H](c2ccccc2)CC(=O)NCC1,-4%,0.48
CC(=O)N(Cc1cccnc1)c1cc(C)ccc1Cl,-4%,0.46
O=C(C[C@H]1CCOC1)NCCc1nc2ccccc2o1,-13%,1.99
CCOC1CC(N(C)Cc2cn(C(C)(C)C)nn2)C12CCC2 (configuration not stated),9%,-1.08
Cc1cc(C(F)(F)F)cc(-c2ccc(C(=O)NC[C@@]3(C)CCCO3)cc2)n1,-14%,1.37
N#Cc1ccc2c(c1)N(Cc1ccccc1F)C(=O)[C@@H]1CCCN21,32%,-0.66
CC[C@@H]1Oc2ccccc2N(CC(=O)NCCC2=CCCCC2)C1=O,-8%,1.36
Cc1nc([C@@H]2CCCCN2C(=O)c2cnc3c(c2)NC(=O)CO3)no1,12%,-1.59
CCCc1cc(C(=O)N[C@H](c2ccccc2)C2CC2)[nH]n1,-2%,0.35
COc1ccc(CN2CCn3c(nn(C)c3=O)C2)cc1Cn1ccnc1,-20%,3.44
O=C1CCC2(CCN(CCn3cnc4ccccc43)CC2)CN1C[C@H]1CCCO1,2%,-0.27
Cc1ccc([C@@H]2CCCN2S(C)(=O)=O)s1,-1%,0.28

Compound,% Inhibition,Z score
COCCN(C)C[C@@H]1C[C@H](CO)CN(C(=O)c2ccc(F)cc2C)C1,-1%,0.18
CC(C)[C@H](NC(=O)N1CC(=O)Nc2ccccc21)C(=O)NCc1ccccc1F,10%,-1.28
C[C@H](CO)CN(Cc1ccccc1)C(=O)CS(C)(=O)=O,-11%,1.56
Cc1cc(NC(=O)c2ccccn2)ccc1N1CCCC1=O,-9%,0.83
Cc1ncc(Cl)c(C(=O)Nc2ccc3c(ccn3CC(C)C)c2)n1,-6%,0.83
Cc1cccc(C(=O)NCCN2CCN(S(=O)(=O)c3ccccc3)CC2)c1,-20%,2.36
Nc1ncncc1-c1noc([C@@H]2CCCN2Cc2ccc(C(=O)O)cc2)n1,-1%,0.07
CCn1cc(CN(C)Cc2scnc2C)c(C)n1,-8%,1.07
O=C(Nc1cccc2ccccc12)C1CCN(c2cc(-c3ccc(F)cc3)ncn2)CC1,-2%,0.24
O=C(NCc1ccc(N2CCCC2=O)cc1)c1csc(S(=O)(=O)NCc2ccc(N3CCCC3=O)cc2)c1,-9%,1.84
CCN1CCc2ncnc(N3CCN(C(=O)[C@@H]4CCCO4)CC3)c2C1,-1%,0.09
CCc1ncc(CN2CCCn3nc(CNC(=O)C4CCC4)cc3C2)cn1,-14%,1.61
CCS(=O)(=O)N1CCC[C@H](C(=O)N2CC(=O)Nc3ccccc32)C1,-23%,2.09
CCCCS(=O)(=O)Nc1cnn([C@H]2CCOC2)c1,10%,-1.27
Cc1cc(NC(=O)c2cccc(C)c2Cl)nc(=O)[nH]1,-12%,1.23
CC(C)c1cc(C(=O)Nc2ccon2)cs1,-12%,1.64
CC(C)(CNC(=O)NCc1ccccc1)c1ccsc1,-5%,0.89
CC1CN(C(=O)CCc2ccccc2N)C(c2ccccc2)CO1 (configuration not stated),-7%,0.91
CC1C(=O)CCN(Cc2ccco2)C1C (configuration not stated),-5%,0.56
O=C1[C@H]2[C@@H](C(=O)N1c1cccc(Cl)c1)[C@]1(C(=O)Nc3c(Cl)cccc31)N1CCC[C@@H]21,1%,-0.08
